The list shows a part of the results.
biological target: T1, OsWOX13 (Oryza sativa, UniProt Q5QMM3 1-267); assay: protein-binding microarray (RPBM); PBS, 2% BSA, 51.3 ng/ul salmon testes DNA, 50 uM zinc acetate, 200 nM TF, 25 C, 1 h; high values mean tight binding; settings: protein: recombinant; tags: N-terminal polyhistidine and DsRed monomer fusion (pET32a); label: CyDye5-dUTP incorporated in the synthesized complementary strand; 3' TTTTT single-stranded linker to array surface; dsDNA, one strand shown
T1 sequence: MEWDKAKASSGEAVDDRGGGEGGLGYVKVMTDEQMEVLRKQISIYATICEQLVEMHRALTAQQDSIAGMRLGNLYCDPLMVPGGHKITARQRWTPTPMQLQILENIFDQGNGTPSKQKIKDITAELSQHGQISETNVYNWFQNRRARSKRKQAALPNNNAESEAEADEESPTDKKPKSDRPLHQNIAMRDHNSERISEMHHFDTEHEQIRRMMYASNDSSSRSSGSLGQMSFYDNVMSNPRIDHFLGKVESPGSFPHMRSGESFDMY
In short: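 In PBS with 2% BSA, salmon testes DNA and 50 µM zinc acetate, 200 nM protein was incubated on a custom Agilent array at 25 °C for 1 h and then washed off. The array had been made double-stranded by primer extension with Cy5-dUTP and blocked with 2% BSA. The proteins were transcription factors fused N-terminally to polyhistidine and DsRed, expressed in E. coli BL21-CodonPlus and purified on Ni–NTA. The binding signal is per-feature fluorescence intensity (arbitrary units) from an Axon 4000B scanner.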

Sequence | binding signal
CAAATCATGTAGCAATTAGGCTTAAAAGATCCGTCTCATACGGAGTCACCTAGTGCAG | 7460 fluorescence intensity (a.u.)
TAACTGATTAGCGTCGGGAGCATAGCATTGGTCGAGTGAGCGGAGTCACCTAGTGCAG | 28700 fluorescence intensity (a.u.)
TTGTAAATTTATGTGTATAAGTAAAGTTTCGATGTGATGGCGGAGTCACCTAGTGCAG | 8120 fluorescence intensity (a.u.)
GCGATTTAAACTAGATTAAAAGCCTATTTAGATTGGTGCCCGGAGTCACCTAGTGCAG | 13100 fluorescence intensity (a.u.)
CTATATTTGATTGCACAGATGATGAAAACCATACCTAAGCCGGAGTCACCTAGTGCAG | 30800 fluorescence intensity (a.u.)
TACTTCATTAATTTATTATGTTTCTTCATAGGAAAAGACACGGAGTCACCTAGTGCAG | 6640 fluorescence intensity (a.u.)
TATTTAATTAATTATTTTCTCTCATCTCGTCTTCTCCGCACGGAGTCACCTAGTGCAG | 51900 fluorescence intensity (a.u.)
TATAATTATAATGTAATTACGTCGTAACGTGCATATAACTCGGAGTCACCTAGTGCAG | 46800 fluorescence intensity (a.u.)
CCTGACTGCCATAACTCAGTCCATTGTCTTAAGTCGCAAACGGAGTCACCTAGTGCAG | 15900 fluorescence intensity (a.u.)
CATGAGTAAATCAATCAGGGATGGCAACATTCAGGTTTAGCGGAGTCACCTAGTGCAG | 12200 fluorescence intensity (a.u.)
GCGCAAATTAAATGCAGGTAAAATGCACAAGTGTTGTAATCGGAGTCACCTAGTGCAG | 11100 fluorescence intensity (a.u.)
CAAACGATTGGATCAGGATTAGTCCGGCCCGATAGATGGGCGGAGTCACCTAGTGCAG | 5360 fluorescence intensity (a.u.)
TACTAAATATGGGGTTGATGGGAACTCACCGTGCATACAACGGAGTCACCTAGTGCAG | 4390 fluorescence intensity (a.u.)
TGGCATGATTAACAATTGACCATAAACCCTCTAGTCTATCCGGAGTCACCTAGTGCAG | 25800 fluorescence intensity (a.u.)
ATTGATTGTTTAGTATCAAATAAGTTATCATGTGGATGTTCGGAGTCACCTAGTGCAG | 47400 fluorescence intensity (a.u.)
TAAATAATTTGTCTATCACTTTTCCTACTCTTTGCACTTACGGAGTCACCTAGTGCAG | 14700 fluorescence intensity (a.u.)
ACATGTTAATCAGCTTTAATTAACTAGTGATCGATTAGCACGGAGTCACCTAGTGCAG | 19200 fluorescence intensity (a.u.)
TTATAATTTTCCCTAAATATTATATACATGTAGGTGAGTTCGGAGTCACCTAGTGCAG | 17700 fluorescence intensity (a.u.)
CACTAACAGATTAGTTGGATGACTAGCTAGATAAGAAGGCCGGAGTCACCTAGTGCAG | 40500 fluorescence intensity (a.u.)
TTTTACTGATTAGGCCATCTGATACGAGCCAGAGACCGGTCGGAGTCACCTAGTGCAG | 21500 fluorescence intensity (a.u.)
CCGGTTCTTATAATTAATAATTAGGGCCGGTTTGTTATGACGGAGTCACCTAGTGCAG | 12100 fluorescence intensity (a.u.)

Sequence | binding signal
GATTAATCACCGTCTAGATGGGCTAGGCGGCCGTTTAGGCCGGAGTCACCTAGTGCAG | 4450 fluorescence intensity (a.u.)
ACCTTTAAATTTAAATTTTGGCTAACGAGAGCGGATGAAACGGAGTCACCTAGTGCAG | 15300 fluorescence intensity (a.u.)
CTTCTAATTATTTGATATTAGGTCATTCTCTAATATTCACCGGAGTCACCTAGTGCAG | 21400 fluorescence intensity (a.u.)
CATTGATTGGATCGTACGCTTGTGTTGCATGACCAATGATCGGAGTCACCTAGTGCAG | 44200 fluorescence intensity (a.u.)
TATGATCTAACAAATTGTTATTTCCAAGGATCATATAAAACGGAGTCACCTAGTGCAG | 5440 fluorescence intensity (a.u.)
TGGATTAATTTCTCCTCTTCTCTTCCTCCCGTTTATAATACGGAGTCACCTAGTGCAG | 6370 fluorescence intensity (a.u.)
GAAATTGACGCTACAACGACTAACAAAATGCCGAAGCGTCCGGAGTCACCTAGTGCAG | 16800 fluorescence intensity (a.u.)
TCGACAAATTGACAAAGTGAAGCTTATACATGGTTCTGTTCGGAGTCACCTAGTGCAG | 42200 fluorescence intensity (a.u.)
TCCAAACATATAATTAGTTAGGTATGTAATTATGGATTGTCGGAGTCACCTAGTGCAG | 24400 fluorescence intensity (a.u.)
AAATGATTATATCTTAGTTTTAACTTAAACAACTATTTGCCGGAGTCACCTAGTGCAG | 22100 fluorescence intensity (a.u.)
TAGGCAAAGCTTGATTGGGATCCTCCAAAGTAAATTCAGACGGAGTCACCTAGTGCAG | 3760 fluorescence intensity (a.u.)
ATCTAGAAATTAAATTACCTACGGTTAATTCGAAGGTGGACGGAGTCACCTAGTGCAG | 12900 fluorescence intensity (a.u.)
ATGACAGCAATTCCGATATCTAATAAGATTGAAAATATTGCGGAGTCACCTAGTGCAG | 14800 fluorescence intensity (a.u.)
ATATGATATTTGTCCATCTTAATTGCTTATAAGCTGTATACGGAGTCACCTAGTGCAG | 5090 fluorescence intensity (a.u.)
AAATGGATTAGTATCTATCATGCGTGAATTATCGAAATGACGGAGTCACCTAGTGCAG | 4120 fluorescence intensity (a.u.)
AGTCTAATTGAGTGATTGTATACATGTTCAATGTTCATGGCGGAGTCACCTAGTGCAG | 65300 fluorescence intensity (a.u.)
CCATAATTAGAGAATGTTTACTGTAGAATCATATAGGTTACGGAGTCACCTAGTGCAG | 27000 fluorescence intensity (a.u.)
ACTGATGATGCACTTGATTTGGATAATCTTCAGCACAAACCGGAGTCACCTAGTGCAG | 29900 fluorescence intensity (a.u.)
TTGCAAACTGACAGGACAAACAAACTACCAATATCAATCACGGAGTCACCTAGTGCAG | 14300 fluorescence intensity (a.u.)
CAGTTTAATAATTATGTTGAGTAAAATTTGATGATAAACCCGGAGTCACCTAGTGCAG | 14600 fluorescence intensity (a.u.)
CTAGAGATTGACGATACGTTGCCTACCACTAAAAGCACAACGGAGTCACCTAGTGCAG | 24100 fluorescence intensity (a.u.)

Source: publication PMC7819943, “Rice protein-binding microarrays: a tool to detect cis-acting elements near promoter regions in rice”
